# PubChem BioAssay (NCATS)
# Results filed as inconclusive are left out. Calls come from the whole dose curve; as a rule, active = well fitted curve in the direction sought with a large enough effect; inconclusive = small, poorly fitted or top-dose-only effect, or another doubt; inactive = no such curve, though single readings can be large; an effect the other way counts as inactive or inconclusive. The source holds more than one record for some entries. Only these are listed. The source may hold further records. Values given together are repeated measurements across runs, samples, wells, individuals or studies. Where a structure was tested more than once in an assay, its records may differ in their call. A tag in brackets gives the origin of a value. Letters count within one entry.
# What was measured:
# [1] = qHTS of pediatric cancer cell lines to identify multiple opportunities for drug repurposing: Primary screen for RD cells (AID 1347104); note: nearly all actives have a fitted effect of over 55% in size
# In short: (§1)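 Following a 5-hour attachment period, cells at 500-1,000/well received compounds and were cultured for 48 hours. CellTiter-Glo was added and luminescence read to estimate viable, metabolically active cells.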
# [2] = qHTS of pediatric cancer cell lines to identify multiple opportunities for drug repurposing: Primary screen for A673 cells (AID 1347092); note: nearly all actives have a fitted effect of over 45% in size
# In short: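 Cell viability of A673 measured by CellTiter-Glo ATP luminescence after 48 hours compound exposure. Dilution series spanned 0.78 nM to 46 µM (MIPE, 11-point) or 0.59 nM to 46 µM (NPC, 8-point); bortezomib 2.3 uM positive control.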
# [3] = qHTS of pediatric cancer cell lines to identify multiple opportunities for drug repurposing: Primary screen for SK-N-MC cells (AID 1347093)
# [4] = qHTS of pediatric cancer cell lines to identify multiple opportunities for drug repurposing: Primary screen for NB1643 cells (AID 1347099); note: nearly all actives have a fitted effect of over 50% in size
# [5] = qHTS of pediatric cancer cell lines to identify multiple opportunities for drug repurposing: Primary screen for BT-12 cells (AID 1347101); note: nearly all actives have a fitted effect of over 25% in size
# In short: (§2)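 Cells (500-1,000/well) rested 5 h, then received compounds for 48 h; metabolically active cells were measured by CellTiter-Glo luminescence. Final concentrations spanned up to 46 µM (MIPE, 11-point) or 0.59 nM-46 µM (NPC, 8-point) in primary screens, 11-point in follow-ups.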
# [6] = qHTS of pediatric cancer cell lines to identify multiple opportunities for drug repurposing: Confirmatory screen for Rh30 cells (AID 1347126); note: nearly all actives have a fitted effect of over 55% in size
# In short: (§3)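 Cells (500-1,000/well) in growth media were settled 5 h at 37 degrees C, then given compounds for 48 h. Viability was read as CellTiter-Glo luminescence. Primary runs used MIPE at 11 points (0.78 nM-46 µM) and NPC at 8 points (0.59 nM-46 µM); follow-ups used 11 points.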
# [7] = qHTS of pediatric cancer cell lines to identify multiple opportunities for drug repurposing: Confirmatory screen for SK-N-SH cells (AID 1347129);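 note: cells exposed to compound for 48 h before viability read; nearly all actives have a fitted effect of over 60% in size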
# In short: as §3
# [8] = qHTS of pediatric cancer cell lines to identify multiple opportunities for drug repurposing: Primary screen for DAOY cells (AID 1347090); note: nearly all actives have a fitted effect of over 55% in size
# In short: (§4)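 Eight- or eleven-point concentration series, 48 h treatment at 37 degrees C in growth media; readout CellTiter-Glo luminescence. Potency and efficacy were taken from the concentration-response curves.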
# [9] = qHTS of pediatric cancer cell lines to identify multiple opportunities for drug repurposing: Primary screen for SK-N-SH cells (AID 1347098); note: nearly all actives have a fitted effect of over 65% in size
# In short: as §2
# [10] = qHTS of pediatric cancer cell lines to identify multiple opportunities for drug repurposing: Primary screen for Rh41 cells (AID 1347108); note: nearly all actives have a fitted effect of over 70% in size
# In short: as §1
# [11] = qHTS of pediatric cancer cell lines to identify multiple opportunities for drug repurposing: Primary screen for NB-EBc1 cells (AID 1347095)
# [12] = qHTS of pediatric cancer cell lines to identify multiple opportunities for drug repurposing: Primary screen for Saos-2 cells (AID 1347097); note: nearly all actives have a fitted effect of over 40% in size
# In short: as §1
# [13] = P-glycoprotein substrates identified in KB-8-5-11 adenocarcinoma cell line, qHTS therapeutic library screen (AID 1346987); conditions: KB-8-5-11 (P-gp overexpressing) viability, CellTiter-Glo, 72 h; note: nearly all actives have a fitted effect of over 65% in size
# In short: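 In this qHTS, P-gp-rich KB-8-5-11 cells received library compounds across a concentration range. Viability was quantified by luminescence after 72 h at 37 degree C.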
# [14] = qHTS of pediatric cancer cell lines to identify multiple opportunities for drug repurposing: Primary screen for LAN-5 cells (AID 1347100)
# In short: as §3
# [15] = qHTS of pediatric cancer cell lines to identify multiple opportunities for drug repurposing: Primary screen for SJ-GBM2 cells (AID 1347091)
# In short: as §4
# [16] = qHTS of pediatric cancer cell lines to identify multiple opportunities for drug repurposing: Primary screen for Rh18 cells (AID 1347102); note: nearly all actives have a fitted effect of over 65% in size
# In short: as §3
# [17] = qHTS of pediatric cancer cell lines to identify multiple opportunities for drug repurposing: Primary screen for OHS-50 cells (AID 1347103); note: nearly all actives have a fitted effect of over 40% in size
# In short: as §2
# [18] = qHTS of pediatric cancer cell lines to identify multiple opportunities for drug repurposing: Primary screen for MG 63 (6-TG R) cells (AID 1347105); note: nearly all actives have a fitted effect of over 50% in size
# In short: as §1
# [19] = qHTS of pediatric cancer cell lines to identify multiple opportunities for drug repurposing: Primary screen for Rh30 cells (AID 1347107); note: nearly all actives have a fitted effect of over 75% in size
# In short: as §3
# Potency is the fitted concentration of half-maximal effect.
smiles,measurement,setting,value
Clc1ccc(C(Cn2ccnc2)OCc2ccsc2Cl)c(Cl)c1 (centres undefined),Potency,[1],inactive [sample A] and active: 37.2 µM [sample B]
Cc1ccc(C)c(OCCCC(C)(C)C(=O)O)c1,Potency,[2],inactive [sample A] and active: 14.8 µM [sample B]
same,Potency,[3],inactive [sample A] and active: 5.9 µM [sample B]
same,Potency,[4],inactive [sample A] and active: 13.2 µM [sample B]
same,Potency,[5],inactive [sample A] and active: 21.7 µM [sample B]
CC[C@]1(O)C[C@H]2CN(CCc3c([nH]c4ccccc34)[C@@](C(=O)OC)(c3cc4c(cc3OC)N(C=O)[C@H]3[C@@](O)(C(=O)OC)[C@H](OC(C)=O)[C@]5(CC)C=CCN6CC[C@]43[C@@H]65)C2)C1,Potency,[6],active: 2.33 µM [sample A] and inactive [sample B]
same,Potency,[7],active: 16.6 nM [sample A] and inactive [sample B]
Cc1cc2cc3c(C)cc(=O)oc3c(C)c2o1,Potency,[8],inactive [sample A] and active: 23.5 µM [sample B]
same,Potency,[2],inactive [sample A] and active: 7.43 µM [sample B]
same,Potency,[3],inactive [sample A] and active: 10.5 µM [sample B]
same,Potency,[9],inactive [sample A] and active: 21.5 µM [sample B]
same,Potency,[4],inactive [sample A] and active: 10.5 µM [sample B]
same,Potency,[1],inactive [sample A] and active: 29.6 µM [sample B]
same,Potency,[10],inactive [sample A] and active: 18.7 µM [sample B]
O=C(NCCO[N+](=O)[O-])c1cccnc1,Potency,[3],active: 18.7 µM [sample A] and inactive [sample B]
same,Potency,[4],active: 14.8 µM [sample A] and inactive [sample B]
C=C(c1ccc(C(=O)O)cc1)c1cc2c(cc1C)C(C)(C)CCC2(C)C,Potency,[8],inactive [sample A] and active: 26.6 µM [sample B]
CNC[C@H](O)c1ccc(O)c(O)c1,Potency,[11],active: 42.9 µM [sample A] and inactive [sample B]
Cc1ccc(Nc2nccc(N(C)c3ccc4c(C)n(C)nc4c3)n2)cc1S(N)(=O)=O,Potency,[11],inactive [sample A] and active: 23.5 µM [sample B]
same,Potency,[12],inactive [sample A] and active: 16.6 µM [sample B]
CC(C)C[C@H](NC(=O)[C@H](Cc1ccccc1)NC(=O)c1cnccn1)B(O)O,Potency,[13],"active: 820, 651, 118, 116 nM [separate samples]"
CCCc1cc(=O)[nH]c(=S)[nH]1,Potency,[2],inactive [sample A] and active: 2.96 µM [sample B]
same,Potency,[3],inactive [sample A] and active: 14.8 µM [sample B]
same,Potency,[11],inactive [sample A] and active: 2.64 µM [sample B]
same,Potency,[14],inactive [sample A] and active: 20.9 µM [sample B]
CC(S)C(=O)NCC(=O)O (centres undefined),Potency,[2],active: 14.8 µM [sample A] and inactive [sample B]
CC(C)c1nc(CN(C)C(=O)N[C@H](C(=O)N[C@@H](Cc2ccccc2)C[C@H](O)[C@H](Cc2ccccc2)NC(=O)OCc2cncs2)C(C)C)cs1,Potency,[15],inactive [sample A] and active: 18.8 µM [sample B]
same,Potency,[14],active: 23.5 µM [sample A] and inactive [sample B]
same,Potency,[16],active: 23.5 µM [sample A] and inactive [sample B]
same,Potency,[17],active: 27.3 µM [sample A] and inactive [sample B]
same,Potency,[18],active: 23.5 µM [sample A] and inactive [sample B]
same,Potency,[19],active: 23.5 µM [sample A] and inactive [sample B]
same,Potency,[10],active: 20.9 µM [sample A] and inactive [sample B]
COc1cc2c(N3CCN(C(=O)Nc4ccc(OC(C)C)cc4)CC3)ncnc2cc1OCCCN1CCCCC1,Potency,[4],active: 20.9 µM [sample A] and inactive [sample B]
